# Measurements published in PubChem BioAssay AID1476 (National Center for Advancing Translational Sciences (NCATS), 2009).
# In all, about 200,000 compounds went through this assay and about 4,500 (2.2%) were called active. The inconclusive results got no clear call from the source; some entries with a clear call stand among them for comparison. The call rests on the fitted dose curve; in most records, active means well fitted inhibition curve with a large enough effect; inconclusive means small, poorly fitted or top-dose-only effect, or effect the other way; inactive means flat fitted curve, though single readings scatter. A potency beside an inconclusive call is a rough fit, not a confirmed value.
# Target: Cruzipain (Trypanosoma cruzi) (UniProt P25779)
# Assay: qHTS Assay for Promiscuous and Specific Inhibitors of Cruzain (without detergent); further: nearly all actives have a fitted effect of over 40% in size;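 on max response, negative = inhibition: plate controls were enzyme without inhibitor for no effect and buffer without enzyme for full effect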
# Conditions: purified cruzain, Z-FR-AMC fluorescence, no detergent
# How it was run: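 Purified cruzain at 1.5 nM, pre-incubated 15 min with compound at room temperature in 100 mM sodium acetate pH 5.5, 5 mM DTT, 0.00005% Triton X-100. Reaction started with 2 uM Z-FR-AMC; AMC fluorescence increase over 60 s gives rate.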
# Potency means the concentration at half of the fitted maximal effect; tags describe the fitted curve by direction and shape.
# Chain of UniProt P25779 (P25779 whole entry, looked up): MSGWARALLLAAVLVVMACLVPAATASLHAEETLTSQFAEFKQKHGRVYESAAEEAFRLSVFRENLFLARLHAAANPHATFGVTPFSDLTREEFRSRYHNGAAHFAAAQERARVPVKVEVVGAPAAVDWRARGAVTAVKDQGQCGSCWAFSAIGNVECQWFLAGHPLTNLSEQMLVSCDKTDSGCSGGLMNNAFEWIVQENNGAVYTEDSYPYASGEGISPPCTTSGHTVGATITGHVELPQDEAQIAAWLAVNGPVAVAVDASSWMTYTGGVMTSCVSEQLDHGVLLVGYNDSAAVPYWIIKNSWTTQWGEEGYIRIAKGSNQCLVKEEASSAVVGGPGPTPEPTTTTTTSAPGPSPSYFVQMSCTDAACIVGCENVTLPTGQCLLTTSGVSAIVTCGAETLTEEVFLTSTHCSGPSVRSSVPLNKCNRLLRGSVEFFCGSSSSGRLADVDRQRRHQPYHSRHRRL
SMILES,Potency,"max response, negative = inhibition"
Cc1ccc(Sc2ccc(N3CCCC(C(=O)Nc4ccc(Cl)cc4)C3)nn2)cc1 (configuration not stated),"inconclusive: 15.8 µM [inhibitor, single point]",
O=C(NC1CCCC1)c1ccc2nc(-c3ccco3)c(-c3ccco3)nc2c1,active: 5.01 µM,
CC(C)CCN1C(=O)N(c2ccccc2)C(=O)C1CC(=O)Nc1ccc(Cl)cc1 (configuration not stated),,inactive: -1.61%
CC(/C=N/Nc1nnc2c(n1)[nH]c1ccccc12)=C\c1ccco1,active: 10 µM,
COC(=O)c1ccccc1NC(=O)c1ccc(COc2ccccc2)o1,,inactive: -16.9%
COc1ccc(CCNC(=O)c2cnc3sc(N4CCCCCC4)nn3c2=O)cc1OC,,inactive: 2.6%
O=C(NC(=S)Nc1ccccc1N1CCCC1)c1ccc([N+](=O)[O-])cc1,"inconclusive: 25.1 µM [inhibitor, single point]",
Cc1ccc(C(c2nnnn2C2CCCC2)N2CCc3ccccc32)cc1 (configuration not stated),active: 31.6 µM,
COc1cc(C(c2c(O)c3ccccc3oc2=O)c2c(C)n(C)n(-c3ccccc3)c2=O)ccc1OCC(=O)O (configuration not stated),"inconclusive: 5.01 µM [activator, single point]",
C/C(CC(=O)Nc1ccc(OCc2ccccc2)cc1)=N\NC(=O)C(=O)Nc1ccc(C)c(Cl)c1,active: 7.94 µM,
Nc1sccc1C(=O)c1ccc(Cl)cc1,"inconclusive: 12.6 µM [inhibitor, partial curve]",
CCOc1ccccc1NC(=O)CSc1c(C)cnc2c1c(=O)n(C)c(=O)n2C,,inactive: -10.3%
COc1cc(Nc2nc(SCc3ccccc3F)nc3ccccc23)cc(OC)c1,,inactive: 24.7%
CCOc1ccc(C(=O)NCCc2sc(-c3ccc(C)cc3)nc2C)cc1,"inconclusive: 39.8 µM [activator, single point]",
O=C(N/N=C/C1CC=CCC1)c1cc2ccccc2cc1O (configuration not stated),"inconclusive: 31.6 µM [inhibitor, single point]",
CCOC(=O)c1c(C)[nH]c(C(=O)COc2ccc3c(c2)OCO3)c1C,"inconclusive: 39.8 µM [activator, single point]",
COc1ccc(OC)c(CNS(=O)(=O)c2c(C(=O)N3CCC(C)CC3)c(C)n(C)c2C)c1,,inactive: -4.69%
CCS(=O)(=O)N1CCN(C2CCC(C)CC2)CC1 (configuration not stated),,inactive: -6.76%
COc1ccc(C2C(=O)N(C3CCC(C)CC3)CC(=O)N2Cc2ccc(C)cc2)cc1OC (configuration not stated),"inconclusive: 39.8 µM [activator, single point]",
CCCC(=O)N1CCN(c2ccc([N+](=O)[O-])c(NC(C)c3ccccc3)c2)CC1 (configuration not stated),"inconclusive: 31.6 µM [activator, single point]",
COc1ccc(CC(=O)Nc2ccc3c(c2)CCC3)cc1S(=O)(=O)N1CCOCC1,"inconclusive: 31.6 µM [activator, single point]",
Cc1ccc2c(CC(=O)N3CCN(c4cccc(Cl)c4)CC3)coc2c1,,inactive: -11.2%
CC1CCN(S(=O)(=O)c2ccc3c(c2)N(CC(=O)NCc2ccccc2Cl)C(=O)CS3)CC1,,inactive: 13.2%

SMILES,Potency,"max response, negative = inhibition"
O=C(Cn1nnc(-c2ccccc2Cl)n1)N1CCN(S(=O)(=O)c2ccc(Cl)cc2)CC1,"inconclusive: 39.8 µM [inhibitor, single point]",
CC1CCC(NC(=O)c2ccc3c(c2)N(Cc2ccccc2F)C(=O)c2ccccc2S3)CC1 (configuration not stated),"inconclusive: 31.6 µM [inhibitor, single point]",
CCOc1ccc(CC(=O)NNC(=S)NC2CCCCC2)cc1OCC,,inactive: -8.21%
Cc1ccc(CCNC(=O)c2cc3c(s2)-c2ccccc2OC3)cc1,active: 12.6 µM,
O=C(O)CCC(=O)N1CCc2cc(S(=O)(=O)N(CCc3ccccc3)Cc3ccccc3)ccc21,"inconclusive: 20 µM [activator, single point]",
CCOCCn1c(CN(Cc2ccccc2)Cc2ccccc2)nc2c1c(=O)[nH]c(=O)n2C,"inconclusive: 39.8 µM [activator, single point]",
COc1cccc(OCCSc2nnc3sc4ccccc4n23)c1,,inactive: -14.3%
COc1ccccc1C(=O)ON=C1c2ccccc2-c2ccccc21,"inconclusive: 25.1 µM [inhibitor, single point]",
CC(C)(C)N(C(=O)Cn1nnc(-c2ccc(F)cc2)n1)C(C(=O)NC1CCCC1)c1ccncc1 (configuration not stated),"inconclusive: 39.8 µM [activator, single point]",
COc1ccc([N+](=O)[O-])cc1NC(C)C,,inactive: -5.46%
O=C(CSc1nnc(-c2ccccc2)c(-c2ccccc2)n1)N1CCc2ccccc21,"inconclusive: 39.8 µM [inhibitor, single point]",
COc1ccc(CC(NC(C)=O)C(=O)NC2CCN(c3nc(C)cc(C)c3C#N)CC2)c(OC)c1 (configuration not stated),"inconclusive: 31.6 µM [activator, single point]",
CC(C)OCCCNC(=O)c1c(N)n(CC2CCCO2)c2nc3ccccc3nc12 (configuration not stated),"inconclusive: 20 µM [activator, partial curve]",
Cc1sc2c(c1C)c(=O)n(-c1cccc(C(F)(F)F)c1)c(=O)n2CC(=O)NCc1ccco1,"inconclusive: 15.8 µM [inhibitor, partial curve, poor fit]",
C=CCSc1nnc2c(n1)OC=Nc1ccc(Br)cc1-2,active: 25.1 µM,
CSc1cccc(NC(=O)Cn2ncn3c(cc4ccccc43)c2=O)c1,,inactive: -21.1%
COC(=O)c1cc2occc2n1CC(=O)Nc1ccc(C(C)C)cc1,,inactive: 2.45%
O=C1C(=O)c2ccc(-c3ccccc3)cc2-c2ccccc21,"inconclusive: 7.94 µM [inhibitor, partial curve]",
CC(C(=O)OCC(=O)Nc1ccc(S(=O)(=O)N2CCCCC2)cc1)N1C(=O)c2ccccc2C1=O (configuration not stated),"inconclusive: 25.1 µM [inhibitor, single point]",
O=[N+]([O-])c1ccc(Nc2nc3ccccc3s2)cc1,active: 3.98 µM,
O=C(Cc1sc(-c2ccccc2)nc1-c1ccccc1)Nc1ccc(Cl)cc1,"inconclusive: 39.8 µM [inhibitor, single point]",
Cc1ccc(N2CCN(S(=O)(=O)c3ccc4[nH]c5c(c4c3)CCCCC5)CC2)c(C)c1,active: 3.16 µM,
CCN(C(=O)c1cn(CC)c(=O)c2cc(OC)c(OC)cc12)c1ccc(C)c(C)c1,,inactive: 13.8%

SMILES,Potency,"max response, negative = inhibition"
Cc1cccc(NC(=O)CCc2c(C)nc3c(c(C)nn3C(C)(C)C)c2C)c1C,"inconclusive: 39.8 µM [activator, single point]",
O=C(c1ccccc1[N+](=O)[O-])N1CCN(Cc2ccc3c(c2)OCO3)CC1,,inactive: -7.82%
Cc1ccc2cccc(Oc3ncnc4scc(-c5ccc(Cl)cc5)c34)c2n1,"inconclusive: 39.8 µM [inhibitor, single point]",
O=C1/C(=C\Nc2ccc(OC(F)(F)F)cc2)CCN1c1ncccn1,"inconclusive: 39.8 µM [inhibitor, single point]",
CCCCS(=O)(=O)c1nc(-c2ccc(Br)cc2)cc(-c2ccccc2)c1C#N,"inconclusive: 10 µM [inhibitor, partial curve]",
CCOC(=O)c1cc(-c2ccncc2)nc2c1c(C)nn2-c1ccccn1,"inconclusive: 31.6 µM [activator, single point]",
CCN(C(=O)COC(=O)c1ccccc1Nc1cccc(C)c1C)C1CCS(=O)(=O)C1 (configuration not stated),"inconclusive: 10 µM [activator, partial curve]",
CCc1ccc2oc(-c3cc(NC(=O)c4cc([N+](=O)[O-])ccc4N4CCOCC4)ccc3Cl)nc2c1,"inconclusive: 6.31 µM [inhibitor, single point]",
Cc1cc(C)cc(-n2c(SCC(=O)NCc3ccc4c(c3)OCO4)nc3ccccc3c2=O)c1,"inconclusive: 31.6 µM [inhibitor, single point]",
Fc1ccc(-c2cn3cc(Cc4ccccc4)sc3n2)cc1,,inactive: 1.58%
COc1ccc(C(c2nnnn2Cc2ccccc2)N2CCN(c3nc4ccccc4s3)CC2)cc1 (configuration not stated),"inconclusive: 39.8 µM [inhibitor, single point]",
COC(=O)c1c(NC(=O)CC2Sc3ccc(C(F)(F)F)cc3NC2=O)sc(C)c1C (configuration not stated),"inconclusive: 39.8 µM [inhibitor, single point]",
CCOc1ccc(NC(=S)NC(=O)/C=C/c2ccc(C)cc2)c([N+](=O)[O-])c1,"inconclusive: 3.98 µM [inhibitor, full curve]",
Cc1ccccc1NC(=S)N=Nc1c(O)n(C)c2ccc(S(=O)(=O)N3CCOCC3)cc12,"inconclusive: 12.6 µM [activator, partial curve]",
CC1CCC(=C(C#N)c2nc(-c3cc4ccccc4oc3=O)cs2)CC1 (configuration not stated),"inconclusive: 31.6 µM [inhibitor, single point]",
COc1ccc(C2C(C#N)=C(/N=C/N3CCOCC3)OC3=C2C(=O)CC(C)(C)C3)cc1OC (configuration not stated),"inconclusive: 39.8 µM [activator, single point]",
CCOC(=O)CSc1nnc(CSc2nc3sc4c(c3c(=O)[nH]2)CCC4)n1-c1ccccc1,"inconclusive: 31.6 µM [activator, single point]",
Cc1ccc(NC(=O)Cn2nnc(C(=O)NCc3cccs3)c2N)cc1Cl,active: 25.1 µM,
CCOC(=O)c1cc2ccccc2n1CCN(CC)CC,,inactive: -2.74%
COC(=O)c1ccc(N(C(=O)c2ccco2)C(C(=O)NC2CCCC2)c2ccco2)cc1 (configuration not stated),,inactive: -2.39%
Cc1cc(F)ccc1NC(=O)Cn1c(=O)ccc2cc(S(=O)(=O)N3CCC(C)CC3)ccc21,,inactive: -7.36%
